Variants at the floor of the assay are shown more often than the library holds them.
B1: tRNA (parent)
chain: CUCUCGGUAGCCAAGUUGGUUUAAGGCGCAAGACUUUAAUUUAUCACUACGAAAUCUUGAGAUCGGGCGUUCGACUCGCCCCCGGGAGAUUUUUUCCUCGAGCAA

Variants of: B1
Test: nonsense suppression (GFP-seq) (ratio to wild type); higher = more function; SUP4oc tRNA, yeast GFP reporter sort-seq
Procedure, shortened: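 Yeast carrying genome-integrated SUP4oc tRNA variants from a library with ~3% random mutations were grown in raffinose/galactose medium with 80 mg/L adenine. Each strain also carried a galactose-driven GFP ochre reporter and RFP. Cells were sorted into GFP/RFP bins, and each bin was Illumina-sequenced (phred ≥30). Nonsense suppression (GFPSEQ) is the bin median GFP/RFP, weighted by each variant's estimated cell share per bin, relative to wild-type SUP4oc; variants needed ≥100 reads and ≥30 cells.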

| Variant | nonsense suppression |
| --- | --- |
| U8C G15A A31G G86C | ≤ 0.026 |
| U8G G28U | ≤ 0.026 |
| U8G G69A G78C | ≤ 0.026 |
| U8C C27U A74G | ≤ 0.026 |
| A9G A62G G73U | ≤ 0.026 |
| U8C U20A A23C G73C | ≤ 0.026 |
| U8G A24G A33U U63C U70A | ≤ 0.026 |
| U8G G59A C77G | ≤ 0.026 |
| U8C G69C | ≤ 0.026 |
| A9G A24G C56U | ≤ 0.026 |
| A9C A24G C27U G66C | ≤ 0.026 |
| A9C G61C | 0.791 |
| A9G A13U A74C | ≤ 0.026 |
| U8G U17G G19A A54C | ≤ 0.026 |
| U8C G32U U58A A62C A74U G88U | ≤ 0.026 |
| A9G A14G U21C C68G G73A C83U | ≤ 0.026 |
| A9C G15U G28U C79A | ≤ 0.026 |
| A9C C12U C82A | ≤ 0.026 |
| U8C A31U A87G | ≤ 0.026 |
| A9C A24G A30C G88U | ≤ 0.026 |
| U8C G10C U17G | ≤ 0.026 |
| A9G C11U G28A A30G | ≤ 0.026 |
| A9C U71A | ≤ 0.026 |
| U8C A31G C75U | ≤ 0.026 |

| Variant | nonsense suppression |
| --- | --- |
| U8C G66A U70G C77U | ≤ 0.026 |
| A9C A14C A62G G69A | ≤ 0.026 |
| U8C A23G | ≤ 0.026 |
| A9C G10C C29G U76G | ≤ 0.026 |
| A9C G19U C81U | ≤ 0.026 |
| A9C C77G A89U | ≤ 0.026 |
| A9G A30C C34G G88A | ≤ 0.026 |
| U8G G25U A31G A33G | ≤ 0.026 |
| U8G G28C C81A | ≤ 0.026 |
| U8C G15C C81U | ≤ 0.026 |
| A9C C12A G86A | ≤ 0.026 |
| U8C U58A G59A U63C | ≤ 0.026 |
| U8C U57G C82A | ≤ 0.026 |
| A9G C11U | 0.0313 |
| A9G C11G | ≤ 0.026 |
| U8G A62C C68G | ≤ 0.026 |
| U8G C64G | ≤ 0.026 |
| U8G U20C | ≤ 0.026 |
| A9G A60G U76A | ≤ 0.026 |
| A9G A30U | 0.163 |
| U8G G88A | 0.228 |
| A9C A13G G26A G65C | ≤ 0.026 |
| A9C G25C C72G | ≤ 0.026 |
| U8C A14G A60C | ≤ 0.026 |

| Variant | nonsense suppression |
| --- | --- |
| A9G C12A A14G | ≤ 0.026 |
| U8G C29G A33G G86A A87C | ≤ 0.026 |
| A9C G26U | ≤ 0.026 |
| U8C A54G G59C A62G G84A | ≤ 0.026 |
| U8C U16G G78A | ≤ 0.026 |
| U8G G10C | ≤ 0.026 |
| A9C A23U U57G | ≤ 0.026 |
| A9C A13G U55A G73U | ≤ 0.026 |
| U8C A24U | ≤ 0.026 |
| A9C G25U | ≤ 0.026 |
| A9C G25C | ≤ 0.026 |
| A9G A89U | ≤ 0.026 |
| A9G A89G | ≤ 0.026 |
| A9C U58C A60U A87C | ≤ 0.026 |
| A9C U21A A24G C77G | ≤ 0.026 |
| A9C U21A A24G C77U | ≤ 0.026 |
| A9G C27A A33C U70G | ≤ 0.026 |
| A9C A30U G67U | ≤ 0.026 |
| U8G C12G | ≤ 0.026 |
| U8G C29G A74C | ≤ 0.026 |
| A9C U17G | 0.595 |
| A9C G28U G67C | ≤ 0.026 |
| U8G U76C | ≤ 0.026 |
| A9C U20G G85U | ≤ 0.026 |

| Variant | nonsense suppression |
| --- | --- |
| A9C U35G G84A G85A | ≤ 0.026 |
| U8C U16A G61A | ≤ 0.026 |
| U8C C56G U58C C77G G88A | ≤ 0.026 |
| U8G C12A A54U | ≤ 0.026 |
| A9C A23U | ≤ 0.026 |
| A9C A23C | ≤ 0.026 |
| U8G A14G G15C U71G | ≤ 0.026 |
| A9G C11A U57C C75A G78C | ≤ 0.026 |
| U8C A31U U63G G88U | ≤ 0.026 |
| U8G U57C | ≤ 0.026 |
| U8G U57G | ≤ 0.026 |
| U8G A14U G61A C64A G85U | ≤ 0.026 |
| A9G A30G G61C C64A G67A | ≤ 0.026 |
| U8C C29A U58G G73U | ≤ 0.026 |
| A9C C11G A33U A60C G85C | ≤ 0.026 |
| A9C C27G U35G A62C U70C | ≤ 0.026 |
| U8G U57C A60G G69C | ≤ 0.026 |
| A9C U21G A33G | ≤ 0.026 |
| U8G A13U C27U C56U A62C | ≤ 0.026 |
| U8C A89G | ≤ 0.026 |
| U8G C29G G84A | ≤ 0.026 |
| U8C U21A A60U | ≤ 0.026 |
| A9C A30C A33G A62C | ≤ 0.026 |
| U8G A54U A62G | ≤ 0.026 |

| Variant | nonsense suppression |
| --- | --- |
| A9C A30G A60C | ≤ 0.026 |
| U8C U21A G78U | ≤ 0.026 |
| U8C G32A C83G G84A | ≤ 0.026 |
| A9C U57G | ≤ 0.026 |
| A9G C27A U35A G88A | ≤ 0.026 |
| A9G A74C | 0.0286 |
| U8C U55C G61U C75U | ≤ 0.026 |
| U8G G18U U21G C56U G61C | ≤ 0.026 |
| A9C G10U C12U U35C | ≤ 0.026 |
| A9G A14C A23G C29G | ≤ 0.026 |
| U8G A9G | ≤ 0.026 |
| U8G G19U A24U G26U U58G G88C | ≤ 0.026 |
| A9G C12U G61A U70A | ≤ 0.026 |
| A9G C12A U22G G86A | ≤ 0.026 |
| U8C A13U C34U C79A | ≤ 0.026 |
| U8G C12U A14C G32C U57C G59C | ≤ 0.026 |
| A9G A13C C34G U63A C81G G84A G86U | ≤ 0.026 |
| A9C U76A | ≤ 0.026 |
| U8C A14C C34U | ≤ 0.026 |
| A9C C82G | ≤ 0.026 |
| A9C C64U U70C | ≤ 0.026 |
| U8G C27G G28U A54C C81A | ≤ 0.026 |
| A9G C11G A31G G61A G86A A89C | ≤ 0.026 |
| A9C G10A U20A U63G | ≤ 0.026 |

| Variant | nonsense suppression |
| --- | --- |
| U8C G84C | ≤ 0.026 |
| U8C G84A | ≤ 0.026 |
| U8C C29U U63A | ≤ 0.026 |
| A9C G10C | ≤ 0.026 |
| U8C A60U U63A C72G | ≤ 0.026 |
| A9G A54U | 0.196 |
| U8G A24G C81A | ≤ 0.026 |
| A9G C12U G61C U63C G88C | ≤ 0.026 |
| U8G G67U | ≤ 0.026 |
| A9C C34U U58G G78C | ≤ 0.026 |
| U8C G59C | ≤ 0.026 |
| U8C C56G | ≤ 0.026 |
| U8C G15U U17G A54C | ≤ 0.026 |
| A9G C11G G25C | ≤ 0.026 |
| U8G A62C G65A | ≤ 0.026 |
| A9C G61C C68A G88U | ≤ 0.026 |
| A9G C12G U57G U58C G67A | ≤ 0.026 |
| U8C A24G G61C U76G C80G | ≤ 0.026 |
| A9C C11A G26C | ≤ 0.026 |
| A9C G19U C56U | ≤ 0.026 |
| U8C C29A G85U | ≤ 0.026 |
| U8G U17C A33G G66U C77A G88C | ≤ 0.026 |
| U8C C29G G73U U76G | ≤ 0.026 |
| A9C G59A G66C A74G G85U G86U | ≤ 0.026 |

| Variant | nonsense suppression |
| --- | --- |
| U8C A87G G88A | ≤ 0.026 |
| A9G A33U U35G U71C A89G | ≤ 0.026 |
| U8C A24C A33C U71G | ≤ 0.026 |
| A9C A14C G84C | ≤ 0.026 |
| A9G C11G G66A C72G G78A | ≤ 0.026 |
| A9C U20A | 0.183 |
| A9C G32C G88U | ≤ 0.026 |
| U8G A9U G61A | ≤ 0.026 |
| A9C G86A A89C | ≤ 0.026 |
| A9C U17A A30U G67U | ≤ 0.026 |
| A9G C11G A62C A89U | ≤ 0.026 |
| A9C G19C A30C A33G U57G | ≤ 0.026 |
| U8G U22G U35A | ≤ 0.026 |
| A9C C11U G69A | ≤ 0.026 |
| A9C C68A C82U A87G | ≤ 0.026 |
| A9C A62G G73A | ≤ 0.026 |
| A9C C27A | ≤ 0.026 |
| A9C C12U G26U C56G | ≤ 0.026 |
| U8C A14U U35C | ≤ 0.026 |
| U8C U71C G73U | ≤ 0.026 |
| A9G A23U G73C | ≤ 0.026 |
| A9G A30U U58A | 0.23 |
| U8G C79U G85A | ≤ 0.026 |
